Reference: the RNAGym collection of RNA variant scans (doi:10.7554/elife.90254)
Read counts are not given, so values of variants with three or more changes are uncertain.

B1: OR4K15 (parent)
chain: GUUAACGGUCAUAGGCCAUGGAAACUAGGAGCACCAUUUCGCUGCCAGUGAAGAAAUGAACAAAGAAAAUCUGGGCCAGGCAGGCAUCAAAAGAAAUAGUCUUGCGCUCAACCAGAAAGUCUGUAAUCAUUUUAAGGGUA

Variants of: B1
Assay: self-cleavage, relative activity (ratio to wild type); higher = more cleavage; in vitro, sequencing; the parent is a self-cleaving ribozyme

| Variant | self-cleavage |
| --- | --- |
| A59G A63C A118C | 0.94 |
| U57C U87C A140G | 1.6 |
| A59U A98G A118G | 0.16 |
| A60G A67G A82U U87G | 0.12 |
| A59U A63G U102C | 1.48 |
| A60G U72C A78U U131A | 0.16 |
| A62G A68G U108A U130C | 0.01 |
| A62C A89G A90U | 0.86 |
| A59U A63G A67G | 1.23 |
| A62G A67G C76U | 0.18 |
| A59G A68G A82U | 0.21 |
| A56G U100C U127C | 2.25 |
| A60U A67G U120C | 0.62 |
| A59U A68G U102G A116U | 0.1 |
| A56U A68G A111U A126G | 0 |
| U57A A66U G79A | 0.26 |
| A59U A82U A111G A125G | 0 |
| A56G G79A A114G U122C | 0.03 |
| A60G U100C U124G | 0.96 |
| A59C A64G U72C A118G U130C | 0.02 |
| A56G A90U U103C U122C | 0.53 |

| Variant | self-cleavage |
| --- | --- |
| A60U A111G A126G | 0.01 |
| U57C A125G U139C | 0.28 |
| A60G U87A U127A | 0.41 |
| A59G A78G A111G | 0.07 |
| A62G A69G U72C | 0.13 |
| U57A A129G U130C | 1.33 |
| A62G A69G U97A | 1.3 |
| A60U G65A A110G | 0.17 |
| A59G A82G U97A A118G | 0.12 |
| G58U A91G U127C | 0.76 |
| A60G A96G U120C | 0.2 |
| A59G A66G A117G | 1.74 |
| A60G A94G A111C U132C | 0.01 |
| A60G A86G A92G U132C | 0.53 |
| A59G A89U A98G U108C A129U | 0 |
| A60G A91G U130C | 0.3 |
| U57C U72A U103A | 0.02 |
| A59G A82G A126G | 0.22 |
| A62G A63G A96G | 1.29 |
| A59U A82G A89U | 0.33 |
| A59G A82U A125G | 0.05 |

| Variant | self-cleavage |
| --- | --- |
| A59G A82G U108C | 0.01 |
| A59G A94G A129G | 0.48 |
| A59G A91G U120C | 0.56 |
| A60G U100A U103G A110G | 0.04 |
| A56U G115A U120A U122A | 0.06 |
| A60G A66G G80A | 0.16 |
| A59G U100C A111G U122A | 0 |
| C61G A94G A116G | 0.89 |
| A62G A69G A89G | 1.65 |
| U57C A68G A82U U122C | 0.12 |
| A59G A62G A89G | 0.89 |
| C61U U120C G123A | 1.59 |
| A60G A90G U120C | 0.87 |
| A60G A78U U100C | 0.78 |
| U57A G74A A117U | 0.12 |
| A56G U57A A59G U102G A117G U132C | 0.27 |
| A62C C85A A114U A125G | 0 |
| U57C A60G A67G | 1.01 |
| A59U U108C A126G | 0.01 |
| A59G A63G A92G U139C | 1.74 |
| A60U A64G U87C | 1.35 |

| Variant | self-cleavage |
| --- | --- |
| U57C A66U U108C | 0 |
| A56G U103C U122C | 0.92 |
| U57C U108C U122A | 0 |
| A60G U97C U103C | 0.82 |
| A59G A62G A114G | 0.23 |
| A59G A82G G106A A116U | 0 |
| A56G U131C A135G | 1.26 |
| A59G A90G A117G A118G | 0.79 |
| A59U A117U A126G | 0.77 |
| A56G U70C G79A | 0.25 |
| A56G A78G U87C | 0.18 |
| A56G A82U A111G | 0.01 |
| A62C U130C U133C | 1.13 |
| A56G A78U U108C | 0.01 |
| A59G U100A C128A | 0.48 |
| A56G G93A A96G C113U | 0.1 |
| U57C A78G A96G U130A | 0.06 |
| U57A U72C A117G U122C U124C C128U | 0.02 |
| A60G U100C A134U | 2.43 |
| A59U A82G A118G | 0.32 |
